± gives the standard deviation of the averaged measurements. The list shows a part of the results.
tested on: PfAP2-G AP2 domain (GST-tagged); assay: gcPBM binding intensity (ln(normalized median fluorescence intensity)); higher = stronger DNA binding
Summary of the method: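 Binding intensity is defined as the maximum Masliner-normalised natural-log median intensity across replicate spots for either probe orientation. It was measured on an Agilent 4 × 180k array of primer-extended double-stranded 36-bp intergenic genomic probes and negative controls, to which GST-tagged P. falciparum DNA-binding domains made in E. coli were applied for 1 h in 1× PBS with 1% milk, 0.2 mg/ml BSA, 0.5% salmon testes DNA and 0.03% Triton X-100. Detection was by Alexa488 anti-GST antibody and scanning at 488 nm.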

Sequence	gcPBM binding intensity (ln)
TATATATATATATGATGTACACATTTTATTATTTGT [XGTACX_site1147]	11.5 ± 0.95
GTTAAAAGAAAAATATGTACATAAAAAAATTAGAAA [XGTACX_site578]	11.5 ± 0.81
AATTTGATAATATCATGTACATGAAAGAATTCATGA [XGTACX_site8463]	10.8 ± 0.4
AATAAAAAAATATGAAATTATGACATATAGCATTTG [TGCATGCA_negctrl_site160]	9.58 ± 0.11
AAAAAATAAAAAGATACACACATATGTATAATATAC [CACACA_site1496]	10.125 ± 0.007
GTGTATATTATTTTATCACACATGTACATATGTTAA [CACACA_site5473]	11.2 ± 0.83
TACATAAATTAAAACACACACACACCCAAAAAAAAA [CACACA_site2261]	10.5 ± 0.42
TGTAGTCTGGAGAAGAGTACATAGTATCTGGTAGCT [XGTACX_site2029]	11.2 ± 0.68
GAATTGTATTGGTACTGTACAATTAAATTAAAAAAA [XGTACX_site1891]	11.2 ± 0.93
AAAAAAAAAAAACACACACACACACCCATATATAAA [CACACA_site1170]	10 ± 0.11
ACATAAAATTATTATACATGCATATTTAATTTTTTC [TGCATGCA_site353]	9.785 ± 0.049
GGAGCACCCAGACACACACACACATATATATATATA [CACACA_site336]	10.4 ± 0.44
TATATCTACTACACACGTACACAAAATAAGATACCT [XGTACX_site7886]	11.5 ± 0.97
TTTTTTGTTAAGTTGGTGCAAACAATAGTTATTGAC	10.1 ± 0.26
TATTATATTTTTATTTGTACGTAAAATTAAGTTATG [XGTACX_site2405]	11.4 ± 0.86
AAAAATATAAACAAACGTACGAAGTGATGATATATT [XGTACX_site2242]	10.6 ± 0.071
TATTAATGATAAGAATATTTTATATGATACATGCAT [CACACA_negctrl_site923]	9.825 ± 0.007
TATGTATTATATATTTGTACTCATTCTAATTCCTTC [XGTACX_site7294]	11.2 ± 0.67
TATAAATAAATATGTACACACATATATACCTTTCAT [CACACA_site7291]	11.4 ± 0.86

Sequence	gcPBM binding intensity (ln)
AATAATTAACAAAAAAAAAAAAAAAAAAAAAAAAAA [GTGCAC_negctrl_site255]	9.53 ± 0.33
GGAAAGACAGTTCACAGTACCCAGGAAATCTGCGGA [XGTACX_site4933]	10.8 ± 0.57
ACATATATGTATAATACACACACTAATATATAATTG [CACACA_site1966]	10.16 ± 0.049
ATTTAAAAAAAAACGGAATTTTTTTTTTTTTTAAAG [XGTACX_negctrl_site91]	9.615 ± 0.021
ATATTCATATATTTACGTACATACATTTATATATTT [XGTACX_site7644]	11.4 ± 0.79
TATATTAATGTTCATAGTACGTATGATTAGGAAAAA [XGTACX_site616]	11.1 ± 0.69
AATTTATAAAAGAAGAGGACACATATAAATATAAAT [XGTACX_site59]	11 ± 0.81
TTTAGTTTTTATATAGCACACATATTGTGATTATGT [CACACA_site8316]	10.1 ± 0.071
TGTATATCACATGAGAGGTGGAGATGGGGATAAATA [CACACA_negctrl_site1148]	9.92 ± 0.099
ATACAATTCTTACATTGTACTTTTTTTTTTTATCAC [XGTACX_site6327]	11.6 ± 0.99
TACAACCTTTAGACAAGTACAAGAATTATATGTGGC [XGTACX_site4581]	11 ± 0.59
ACAAAATATATAGACACACAAACACAAATATGTTTT [CACACA_site3016]	10 ± 0.19
TAATACAGATTAAAAGGTACACTTATTTGGTATTAT [XGTACX_site4966]	11.1 ± 0.66
TTAATATGAATTATTACATGCAACTAAATATATTTA [TGCATGCA_site490]	9.83 ± 0.028
TTGACAACTCTTTTCATACACACAAAAAAAAAAAAA [CACACA_site2362]	10.1 ± 0.51
TCTATACCTATTCTTACACACATATGTATAAATATA [CACACA_site6407]	10.2 ± 0.14
ACTAAAAAAATAAACACACAGATTTATATAATATAT [CACACA_site4884]	9.96 ± 0.014
ACTAATAAAGGTGTAATACACACTATAAAAAGGAAT [CACACA_site1124]	10.2 ± 0.13
AAAAAAAAAACACGCGCACACACACCCACCCACCCA [CACACA_site8689]	10.8 ± 0.4

Sequence	gcPBM binding intensity (ln)
GAGAGGTATCAAAAATGTACACATATATATATGTAT [XGTACX_site5611]	11.2 ± 0.71
TTTTTTCTTTATTATGGTACGTATAAAAAAATTATA [XGTACX_site3433]	11 ± 0.71
ATATATAATATATATTGTACAGGTATGTCTATAAAT [XGTACX_site2243]	10.9 ± 0.47
TATAAAATTTTTAAAAGTACATATTTTACATAATAC [XGTACX_site2193]	11.1 ± 0.72
ATTATTCCATATTATTGTACTTTAATTTTTTAAACC [XGTACX_site2960]	11.3 ± 0.81
TTTTTATCAACAAATAATACCATAACTCATATTTAT [CACACA_negctrl_site740]	9.915 ± 0.049
TATATATATCTGTATACACACATACAAATATGTAAA [CACACA_site5950]	10 ± 0.34
GATATTCATTATATATGTACATATATGTAATATATA [XGTACX_site2210]	11 ± 0.6
TATTAAAGCACCCATGCACACACACTAAGGAAAAGA [CACACA_site7961]	10.3 ± 0.39
AGAAAAAAATAATCATCACACACGGAGAATGTCCAA [CACACA_site2314]	10.05 ± 0.014
GAAAATAACTAAAATTGTACAAAGAAACATATATTT [XGTACX_site6484]	10.7 ± 0.29
ATATATTTTTTTTTTTCACACATTAGGATTCATATA [CACACA_site5758]	9.91 ± 0.11
ATCATATGTATGGTGGTGCATTATGCATGAATTTTA [GTGCAC_site9798]	10.1 ± 0.18
TAATAATATATAAAAAGTACATAACAAGATATGAAA [XGTACX_site4921]	11.3 ± 0.94
TATATAAACCCACCTACACACACAACGTAAATGCAT [CACACA_site8702]	10.2 ± 0.14
ATTATTATATTCAAATGTACTTAATAAACATTTTAA [XGTACX_site3023]	10.8 ± 0.67
TTTATCTAAATATGTGTGCACTCGTTAATTTTTTTT	10.4 ± 0.23
GTAATTATACATATTACACACTCTCTTGATCTTTTT [CACACA_site7756]	9.86 ± 0.13
TATATAAAGAAACACACACACACCTTATAATTATTA [CACACA_site4062]	10.01 ± 0.071
